In PubChem BioAssay AID686978 (National Center for Advancing Translational Sciences (NCATS), 2013):
In all, about 420,000 compounds went through this assay and about 64,000 (15%) were called active. The inconclusive results got no clear call from the source; some entries with a clear call stand among them for comparison. Calls follow the shape of the dose curve; as a rule, active = well fitted inhibition curve with a large enough effect; inconclusive = small, poorly fitted or top-dose-only effect; inactive = flat fitted curve, though single readings scatter. Potencies of inconclusive entries are left out as doubtful fits.

Assay: qHTS for Inhibitors of human tyrosyl-DNA phosphodiesterase 1 (TDP1): qHTS in cells in absence of CPT; also: nearly all actives have a fitted effect of over 55% in size
Conditions: DT40 Tdp1-/- hTDP1 cells, no CPT, ATP luminescence, 48 h; series mostly up to 46.2 µM
Summary of the method: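 Readout: luminescence from CellTiter-Glo after 30 min in the dark at RT. Cells: DT40 Tdp1-/- with stable hTDP1, 400/well. Exposure: compounds alone, ≥48 hr, 37 °C.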
Potency is read from the fitted curve at half-maximal effect; tags tell the direction and shape of the fitted curve.

Row | Compound | Potency
1 | O=C(N1CCOCC1)N1[C@H](COCc2ccccc2)C=CS1(=O)=O | inactive
2 | Cc1cc(C)c2c(/C=C/c3ccc(N(C)C)cc3)ccnc2c1 | inconclusive [inhibitor, single point]
3 | CCc1ccc(N2CC(C)Cn3c2nc2c3c(=O)n(CC(=O)O)c(=O)n2C)cc1 (stereo unspecified) | inactive
4 | CN1CC[C@]2(CCN3CCc4c(oc5ccccc45)[C@@H]3C2)N(C)C1=O | active: 18.4 µM
5 | COc1ccc(CC(=O)N[C@@H]2c3ccccc3CC[C@H]2OCc2ccccc2)cc1 | inconclusive [inhibitor, partial curve]
6 | CCn1cc(C(=O)NCC(OC)OC)c(=O)c2cc(S(=O)(=O)N3CCC(C)CC3)ccc21 | active: 10.3 µM
7 | CCOC(=O)CN(Cc1ccccc1)C(C(=O)NC1CCCCC1)c1ccccc1 (stereo unspecified) | active: 14.6 µM
8 | COc1ccc(Cc2nnc(NC(=O)CSc3ccccc3)s2)cc1OC | inconclusive [inhibitor, partial curve, poor fit]
9 | COc1ccc(NS(=O)(=O)c2ccc(N3CCCC3)c(N)c2)cc1 | active: 4.61 µM
10 | O=c1c(-c2ccccc2)nc2cnc(N3CCOCC3)nc2n1Cc1cccs1 | inactive
11 | Cc1c(C(=O)NCc2ccco2)sc(=O)n1Cc1ccc(S(C)(=O)=O)cc1 | inconclusive [inhibitor, single point]
12 | CCCOc1ccc(-c2nc(N3CCN(C)CC3)c3ccccc3n2)cc1 | inconclusive [inhibitor, single point]
13 | C/C=C(\C)CN1CCC(n2nccc2NC(=O)CCc2ccccc2)CC1 | inactive
14 | CCOc1ccccc1OC(C)C(=O)Nc1ccc(S(=O)(=O)N2CCCC2)cc1 (stereo unspecified) | inconclusive [inhibitor, single point]
15 | O=C(NCc1ccco1)c1cc(NS(=O)(=O)c2cccc([N+](=O)[O-])c2)ccc1O | inactive
16 | COc1ccc(O)c(CN2CCN(CCc3ccccc3)C(CCO)C2)c1 (stereo unspecified) | inactive
17 | Cc1ccnc(NC(=O)C2CC(=O)N(c3ccc4c(c3)OCCO4)C2)c1 (stereo unspecified) | inactive
18 | CC1CCCCN1CCNC(=O)Cn1nc(-c2ccccc2)ccc1=O (stereo unspecified) | inactive
19 | O=C(Nc1ccc(S(=O)(=O)N2CCOCC2)cc1)c1ccc(Cl)c([N+](=O)[O-])c1 | active: 13 µM
20 | CC(C)CCNC(=O)c1ccc2c(c1)N(Cc1cccc(Cl)c1)C(=O)c1ccccc1S2 | active: 20.6 µM
21 | CC(=O)NC1(NC(C)=O)CCN(C)C(c2ccccc2)C1C (stereo unspecified) | inactive
22 | CC1CCN(S(=O)(=O)c2ccc3c(c2)C(=NO)c2cc(S(=O)(=O)N4CCC(C)CC4)ccc2-3)CC1 | active: 0.731 µM
23 | O=C(Nc1ccc(N2CCN(C(=O)c3cccs3)CC2)c(Cl)c1)c1cccnc1 | inconclusive [inhibitor, single point]

Row | Compound | Potency
24 | COc1cccc(NC(=O)c2oc3ccccc3c2NC(=O)c2ccc3c(c2)OCO3)c1 | inconclusive [inhibitor, partial curve]
25 | CC(C)C[C@H](NC(=O)c1nc[nH]c1C(=O)NCCCCCNC(=O)OC(C)(C)C)C(=O)OC(C)(C)C | active: 18.4 µM
26 | CCOC(=O)C1(C)CCCCCN1C(=O)c1ccc(C(=O)OC)cc1 (stereo unspecified) | inconclusive [inhibitor, partial curve]
27 | Nn1c(SCC(=O)Nc2cccnc2Cl)nnc1-c1ccccc1 | inactive
28 | CCSc1nnc2ccc(-c3ccc(C)cc3)nn12 | inconclusive [inhibitor, single point]
29 | CC1(C)Cc2c(c(N3CCOCC3)nc3sc4c(NCCN5CCOCC5)nnnc4c23)CS1 | active: 11.6 µM
30 | Cc1cc(=O)oc2cc(OCC(=O)N3c4ccccc4CC3C)ccc12 (stereo unspecified) | active: 2.31 µM
31 | C[C@H](NC(=O)c1nc[nH]c1C(=O)N[C@@H](Cc1ccccc1)C(=O)OC(C)(C)C)C(=O)OCc1ccccc1 | active: 18.4 µM
32 | COc1ccc(-n2cnnc2SCC(=O)Nc2cccc(S(=O)(=O)N3CCCCC3)c2)cc1 | inconclusive [inhibitor, single point]
33 | Cc1cccc(NC(=O)CO/N=C/c2ccc3c(c2)OCO3)c1 | inconclusive [inhibitor, single point]
34 | CCOC(=O)c1ccc(N2C(=O)C3CCOc4ccccc4C32)cc1 (stereo unspecified) | inconclusive [inhibitor, single point]
35 | CC(C(=O)NCc1ccco1)n1ccc2cc(S(=O)(=O)N3CCCC3)ccc21 (stereo unspecified) | inactive
36 | Cc1[nH]n(-c2ncc(-c3ccccc3)s2)c(=O)c1C(c1ccc(Cl)cc1)C(C#N)C#N (stereo unspecified) | inconclusive [inhibitor, partial curve, poor fit]
37 | O=C(COc1ccccc1)NC(=S)Nc1ccc2c(c1)Cc1ccccc1-2 | inconclusive [inhibitor, partial curve, poor fit]
38 | O=C(/C=C/c1ccc(F)cc1)NCC1(c2ccccc2)CCOCC1 | inconclusive [inhibitor, single point]
39 | N=C(N)SCc1nc2ccccc2c(=O)n1-c1ccccc1Cl | active: 20.6 µM
40 | N#CCCOC1(C#CCN2CCCC2)CCCCC1 | inconclusive [inhibitor, full curve, poor fit]
41 | COc1ccc(N2C[C@H](CSC)[C@@H](CC(=O)Nc3ccccc3)C2=O)cc1 | inconclusive [inhibitor, single point]
42 | CC(C)OC(=O)c1cn(-c2ccccc2)nc1-c1ccco1 | inconclusive [inhibitor, single point]
43 | CCC(=O)C1CCCN(C(=O)c2ccc3nc(-c4cccc(OC)c4)oc3c2)C1 (stereo unspecified) | inconclusive [inhibitor, single point]
44 | Cc1ccc(OCC(=O)Nc2ccc3c(c2)nc(CCNC(=O)c2ccco2)n3C)cc1 | inconclusive [inhibitor, full curve]
45 | Cn1c2ccccc2c(=O)c2cc(NCCCN3CCOCC3)ccc21 | inconclusive [inhibitor, single point]
46 | C=CCNC(=O)c1onc(CCl)c1C(=O)OC | inconclusive [inhibitor, single point]
